Assay results as given in PMC4336329 (PLoS ONE, 2015).
In all, about 310,000 compounds went through this assay and about 14,000 (4.5%) showed an effect of 50% or more. The effect is printed as a negative number. The list shows a part of the results. Where a SMILES comes first, the peptide text is derived from it. The star is where a group is joined. Boc = CC(C)(C)OC(=O)*
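Further: peak tail current of the secondary pulse compared with the same well before compound.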

Each compound was assayed against human ether-à-go-go-related gene (hERG) potassium channel (human, UniProt Q12809) (assay: primary screen, population patch clamp on CHO cells stably expressing hERG).
Chain of human ether-à-go-go-related gene (hERG) potassium channel (Q12809 whole entry, looked up): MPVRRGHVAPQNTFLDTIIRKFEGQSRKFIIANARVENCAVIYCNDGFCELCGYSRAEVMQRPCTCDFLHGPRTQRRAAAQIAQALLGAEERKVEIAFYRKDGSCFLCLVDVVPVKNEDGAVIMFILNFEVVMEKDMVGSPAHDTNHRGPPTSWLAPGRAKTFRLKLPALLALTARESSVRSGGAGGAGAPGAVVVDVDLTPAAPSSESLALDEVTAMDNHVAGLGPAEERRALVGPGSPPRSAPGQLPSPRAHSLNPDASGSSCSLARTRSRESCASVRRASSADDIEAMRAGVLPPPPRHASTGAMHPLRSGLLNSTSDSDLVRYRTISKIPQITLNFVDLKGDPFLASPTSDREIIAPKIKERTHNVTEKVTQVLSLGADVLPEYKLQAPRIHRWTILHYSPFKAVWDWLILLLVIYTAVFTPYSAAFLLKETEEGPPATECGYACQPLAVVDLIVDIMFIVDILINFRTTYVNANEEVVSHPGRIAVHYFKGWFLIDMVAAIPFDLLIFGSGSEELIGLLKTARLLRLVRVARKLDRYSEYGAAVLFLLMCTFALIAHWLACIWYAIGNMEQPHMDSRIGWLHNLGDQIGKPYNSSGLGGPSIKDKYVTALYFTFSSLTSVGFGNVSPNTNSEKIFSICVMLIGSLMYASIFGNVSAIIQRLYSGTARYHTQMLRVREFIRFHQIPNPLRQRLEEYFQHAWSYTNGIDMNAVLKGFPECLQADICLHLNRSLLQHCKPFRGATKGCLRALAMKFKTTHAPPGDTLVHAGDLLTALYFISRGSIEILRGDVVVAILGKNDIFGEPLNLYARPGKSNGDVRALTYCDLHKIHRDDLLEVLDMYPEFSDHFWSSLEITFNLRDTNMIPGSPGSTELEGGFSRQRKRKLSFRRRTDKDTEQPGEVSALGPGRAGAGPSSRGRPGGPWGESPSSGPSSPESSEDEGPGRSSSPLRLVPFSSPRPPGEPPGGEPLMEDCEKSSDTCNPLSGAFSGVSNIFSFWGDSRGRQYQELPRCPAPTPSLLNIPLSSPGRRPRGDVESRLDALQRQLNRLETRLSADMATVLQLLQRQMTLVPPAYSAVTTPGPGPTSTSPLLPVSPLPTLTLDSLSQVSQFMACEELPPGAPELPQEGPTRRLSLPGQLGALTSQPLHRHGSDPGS
In the case of `COc1ccc(C(=O)/C=C2/c3ccccc3CC(C)(C)N2C)cc1`, the “hERG current change (%, negative = inhibition) at 10uM” value is reported as -13.7%. For `CC(C)C(NC(=O)OC(C)(C)C)C(=O)N1CCCC1C(=O)NC(Cc1ccccc1)C(N)=O` (stereo not drawn) (Boc-Val-Pro-Phe-NH2; configuration not given here), the “hERG current change (%, negative = inhibition) at 10uM” value was -8.68%. In the case of `COc1ccc(CC2(CCc3ccncc3)C(=O)NC(=O)NC2=O)c(OC)c1`, the “hERG current change (%, negative = inhibition) at 10uM” value is reported as 6.03%. For `Cc1ccc(C)c(N2CCN(C(=O)c3csc(C)c3C)CC2)c1`, the “hERG current change (%, negative = inhibition) at 10uM” value was -26.7%. With `CC(=O)N1CCc2cc(Br)cc(S(=O)(=O)CCC(=O)N3CCN(c4ccccn4)CC3)c21` the “hERG current change (%, negative = inhibition) at 10uM” value was 2.49%. For `COC(=O)c1ccccc1S(=O)(=O)Oc1ccc(-c2ccc(C(=O)O)cc2)cc1`, the “hERG current change (%, negative = inhibition) at 10uM” value was -11.4%. In the case of `O=C(CN(Cc1ccccc1)S(=O)(=O)c1ccccc1)N/N=C/c1ccc([N+](=O)[O-])cc1`, the “hERG current change (%, negative = inhibition) at 10uM” value is reported as -18.2%. In the case of `COc1ccc(CNC(=O)CN(c2ccc(C)cc2)S(=O)(=O)c2c(C)nn(C)c2C)cc1`, the “hERG current change (%, negative = inhibition) at 10uM” value is reported as -7.82%. With `Cc1c(CCOC(=O)c2ccccc2)sc[n+]1CC(=O)c1ccc(Br)cc1.[Br-]` the “hERG current change (%, negative = inhibition) at 10uM” value was -77%. With `Cn1c(=O)c2c(-c3cccc(Br)c3)c(C#N)c(N)nc2n(C)c1=O` the “hERG current change (%, negative = inhibition) at 10uM” value was -32.5%. `CC1CCN(CCCOc2ccc(Br)cc2Cl)CC1` was tested, and the “hERG current change (%, negative = inhibition) at 10uM” value was -72.8%. `COc1ccc(CCn2c(O)c(C=Nc3ccc(NC(C)=O)cc3)c(=O)[nH]c2=O)cc1OC` was tested, and the “hERG current change (%, negative = inhibition) at 10uM” value was 27.6%. In the case of `CCCC(=O)Nc1ccc(NC(=O)c2cc3ccccc3o2)c(OC)c1`, the “hERG current change (%, negative = inhibition) at 10uM” value is reported as 16.2%. With `O=c1nc2sc3ccccc3n2c(=O)n1-c1ccc(Cl)cc1` the “hERG current change (%, negative = inhibition) at 10uM” value was 22.1%. With `O=C1N(Cc2cccc(Cl)c2)C[C@@H]2C[C@@H](c3cccn3-c3cccnc3)N3CCC[C@@]123` the “hERG current change (%, negative = inhibition) at 10uM” value was -35.7%. For `CCC(C)(C)NC(=O)C(c1ccc(OC)cc1)N(C(=O)CCC(=O)Nc1cc(C)on1)C1CC1` (stereo not drawn), the “hERG current change (%, negative = inhibition) at 10uM” value was -13.9%. With `COc1cc(OC)cc(C(=O)NNC(=O)CNC(=O)c2cccs2)c1` the “hERG current change (%, negative = inhibition) at 10uM” value was 18.9%. `CCC(C(=O)NCc1cccnc1)n1nc(C)n2c(cc3occc32)c1=O` (stereo not drawn) was tested, and the “hERG current change (%, negative = inhibition) at 10uM” value was 1.55%. `Cc1cccc(NC(=O)CSCC(=O)OCc2ccccn2)c1` was tested, and the “hERG current change (%, negative = inhibition) at 10uM” value was 16.7%. In the case of `CN1CCN(C(=O)CCN2C(=O)/C(=C\c3ccc(Cl)cc3)SC2=S)CC1`, the “hERG current change (%, negative = inhibition) at 10uM” value is reported as 8.83%. With `O=C(Nc1ccc(F)cc1)NC1CCCCCCC1` the “hERG current change (%, negative = inhibition) at 10uM” value was 25.4%. With `Cc1cc(=O)oc2cc(NC(=O)CCCC(=O)O)ccc12` the “hERG current change (%, negative = inhibition) at 10uM” value was 15.1%. `COC(=O)COc1ccc(S(=O)(=O)NCCC2=CCCCC2)cc1C` was tested, and the “hERG current change (%, negative = inhibition) at 10uM” value was -4.62%. With `O=C(COC(=O)c1ccco1)NCc1ccccc1Cl` the “hERG current change (%, negative = inhibition) at 10uM” value was -7.78%. In the case of `CCC1Oc2ccc(C)cc2N(CC(=O)NCc2cc(OC)ccc2OC)C1=O` (stereo not drawn), the “hERG current change (%, negative = inhibition) at 10uM” value is reported as 4.61%. `COc1ccc(/C=N/Nc2nc(=O)[nH]nc2C)cc1[N+](=O)[O-]` was tested, and the “hERG current change (%, negative = inhibition) at 10uM” value was 8.39%. In the case of `COc1ccc(CCN(CC(=O)NCc2ccc(F)cc2)C(=O)c2snc(C(N)=O)c2N)cc1OC`, the “hERG current change (%, negative = inhibition) at 10uM” value is reported as -26.4%. With `COc1ccc(-c2cc(C(F)(F)F)n3nc(C(=O)N(C)Cc4ccccc4)cc3n2)cc1OC` the “hERG current change (%, negative = inhibition) at 10uM” value was -11.5%. `Cl.O=C(CN1CCOCC1)Nc1ccc(OC(F)(F)F)cc1` was tested, and the “hERG current change (%, negative = inhibition) at 10uM” value was -8.1%. `CCc1cc(C(=O)N2CCCc3ccccc32)sc1C` was tested, and the “hERG current change (%, negative = inhibition) at 10uM” value was 5.61%. `COc1ccc(Nc2ncnc3ccc(C)cc23)cc1` was tested, and the “hERG current change (%, negative = inhibition) at 10uM” value was -3.17%. With `Cc1nc2cc(-c3cccc(F)c3)nn2c(C)c1CCC(=O)NC(C)c1ccc2c(c1)OCCO2` (stereo not drawn) the “hERG current change (%, negative = inhibition) at 10uM” value was -44.6%. `Cc1cccc(-n2c(SCc3ccc(C#N)cc3)nnc2-c2c[nH]c3ccccc23)c1` was tested, and the “hERG current change (%, negative = inhibition) at 10uM” value was 12.1%. For `CCOC(=O)N1CCC(NC(=O)c2ccc3c(c2)N=C(C)c2ccccc2S3)CC1`, the “hERG current change (%, negative = inhibition) at 10uM” value was -9.41%. With `Cc1cc(NC(=O)CSCC(=O)N(C)Cc2cccc(Cl)c2)no1` the “hERG current change (%, negative = inhibition) at 10uM” value was -6.09%. For `CC(C)c1c(C#N)c(N)nc(SCC(=O)c2cc3ccccc3oc2=O)c1C#N`, the “hERG current change (%, negative = inhibition) at 10uM” value was 6.19%. For `Cc1ccc(S(=O)(=O)c2nc(S(=O)(=O)CCO)sc2N2CCOCC2)cc1`, the “hERG current change (%, negative = inhibition) at 10uM” value was 7.88%. In the case of `COc1ccc(CCN2C(=O)NC(NS(=O)(=O)c3ccc(NC(C)=O)cc3)(C(F)(F)F)C2=O)cc1OC` (stereo not drawn), the “hERG current change (%, negative = inhibition) at 10uM” value is reported as -5.28%. For `CCc1ccc(N2CC(C(=O)NCc3ccc4c(c3)OCO4)CC2=O)cc1` (stereo not drawn), the “hERG current change (%, negative = inhibition) at 10uM” value was -9.87%. For `Cc1ccccc1NC(=O)c1ccc(C)c(S(=O)(=O)Nc2cccnc2)c1`, the “hERG current change (%, negative = inhibition) at 10uM” value was 1.76%. `CC(=O)c1cccc(NS(=O)(=O)c2c(C)noc2C)c1` was tested, and the “hERG current change (%, negative = inhibition) at 10uM” value was 12%. With `Cc1ccc(-n2c(SCC(=O)N/N=C/c3c(C)nn(-c4ccccc4)c3C)nc3ccccc3c2=O)cc1` the “hERG current change (%, negative = inhibition) at 10uM” value was -7.33%.
